# Experimental data published in the supplement of paper PMC10369915.
# Some of the results follow. No stated cut-off is given here; in the data, active = 3.2 or more and inactive = the rest. The signal is at background level for most entries.
# B1: FGFR3_Y647 (peptide)
# chain: VHNLDYYKKTT
# B2: FGFR2_Y656_YF (peptide)
# chain: INNIDYFKKTT
# B3: FGFR3_Y648_K650Q_YF (peptide)
# chain: HNLDFYKQTTN
# B4: FGG_Y300_T303P_YF (peptide)
# chain: PEADKYRLPFA
# B5: FHL1_Y149_H154P (peptide)
# chain: KGEDFYCVTCP
# B6: FHL1_Y213_YF (peptide)
# chain: FCVDCYKNFVA
# B7: FLI1_Y332 (peptide)
# chain: KPNMNYDKLSR
# B8: FGG_Y300_YF (peptide)
# chain: PEADKYRLTFA
# B9: FLNA_Y1761_A1764T (peptide)
# chain: QLAPQYTYTQG
# B10: FHL1_Y207_C209R_YF (peptide)
# chain: AVEDQYFRVDC
# B11: FGFR2_Y656_K659N (peptide)
# chain: INNIDYYKNTT
# B12: FLNA_Y1761_YF (peptide)
# chain: QLAPQYTFAQG
# B13: FGG_Y140_Y140H (peptide)
# chain: YLQEIHNSNNQ
# B14: FGFR3_Y648_D646N_YF (peptide)
# chain: HNLNFYKKTTN
# B15: FGG_Y300 (peptide)
# chain: PEADKYRLTYA
# B16: FGFR4_Y237_YF (peptide)
# chain: SIRFNYLLDVL
# B17: FHL1_Y149_C153Y (peptide)
# chain: KGEDFYCVTYH
# B18: FGFR2_Y616_G613R (peptide)
# chain: ARRMEYLASQK
# Target: SHP2 C-SH2 domain E139D
# Assay: enrichment score (SH2-bound / input frequency) (ratio); bacterial display of known human phosphotyrosine sites (pTyr-Var adds point mutants) read by sequencing; higher = stronger binding; tyrosines were phosphorylated by kinases first
# Conditions: peptide library: pTyr-Var
# 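Further: displayed peptides selected on beads carrying the immobilized SH2 domain, with library peptides lacking any tyrosine serving as negative controls.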
row,Binder,enrichment score
1,B1,inactive: 0.729
2,B2,inactive: 0.77
3,B3,inactive: 0.747
4,B4,inactive: 0.86
5,B5,inactive: 3.07
6,B6,active: 3.44
7,B7,inactive: 0.624
8,B8,inactive: 1
9,B9,inactive: 0.653
10,B10,inactive: 1.04
11,B11,inactive: 1.31
12,B12,inactive: 0.777
13,B13,inactive: 1.1
14,B14,inactive: 0.434
15,B15,inactive: 0.706
16,B16,active: 3.43
17,B17,inactive: 0.67
18,B18,inactive: 0.706

# Target: SHP2 C-SH2 domain wild-type
# Assay: as above
# Conditions: peptide library: pTyr-Var
row,Binder,enrichment score
1,B1,inactive: 0.493
2,B2,inactive: 0.64
3,B3,inactive: 0.674
4,B4,inactive: 0.583
5,B5,inactive: 2.65
6,B6,inactive: 3.08
7,B7,inactive: 0.683
8,B8,inactive: 0.803
9,B9,inactive: 0.731
10,B10,inactive: 0.98
11,B11,inactive: 0.804
12,B12,inactive: 0.863
13,B13,inactive: 0.993
14,B14,inactive: 0.6
15,B15,inactive: 0.721
16,B16,inactive: 3.11
17,B17,inactive: 1.07
18,B18,inactive: 0.396

# Target: SHP2 N-SH2 domain L43F
# Assay: as above
# Conditions: peptide library: pTyr-Var
row,Binder,enrichment score
1,B1,inactive: 0.368
2,B2,inactive: 0.535
3,B3,inactive: 0.577
4,B4,inactive: 0.456
5,B5,inactive: 2.99
6,B6,active: 3.45
7,B7,inactive: 0.867
8,B8,inactive: 0.781
9,B9,inactive: 0.632
10,B10,inactive: 0.834
11,B11,inactive: 1.05
12,B12,inactive: 0.734
13,B13,inactive: 1.28
14,B14,inactive: 0.58
15,B15,inactive: 0.675
16,B16,inactive: 3.17
17,B17,inactive: 1.96
18,B18,inactive: 0.617

# Target: SHP2 N-SH2 domain T42A
# Assay: as above
# Conditions: peptide library: pTyr-Var
row,Binder,enrichment score
1,B1,inactive: 0.544
2,B2,inactive: 0.49
3,B3,inactive: 0.766
4,B4,inactive: 0.901
5,B5,inactive: 2.24
6,B6,inactive: 2.51
7,B7,inactive: 0.566
8,B8,inactive: 0.606
9,B9,inactive: 0.873
10,B10,inactive: 0.667
11,B11,inactive: 0.716
12,B12,inactive: 0.51
13,B13,inactive: 0.981
14,B14,inactive: 0.315
15,B15,inactive: 1.02
16,B16,inactive: 2.56
17,B17,inactive: 0.794
18,B18,inactive: 0.562

# Target: SHP2 N-SH2 domain T52S
# Assay: as above
# Conditions: peptide library: pTyr-Var
row,Binder,enrichment score
1,B1,inactive: 0.582
2,B2,inactive: 0.607
3,B3,inactive: 0.768
4,B4,inactive: 0.566
5,B5,inactive: 2.79
6,B6,active: 3.23
7,B7,inactive: 0.566
8,B8,inactive: 0.759
9,B9,inactive: 0.627
10,B10,inactive: 0.757
11,B11,inactive: 0.874
12,B12,inactive: 0.758
13,B13,inactive: 0.775
14,B14,inactive: 0.383
15,B15,inactive: 0.678
16,B16,inactive: 3.02
17,B17,inactive: 1.5
18,B18,inactive: 0.576

# Target: SHP2 N-SH2 domain wild-type
# Assay: as above
# Conditions: peptide library: pTyr-Var
row,Binder,enrichment score
1,B1,inactive: 0.713
2,B2,inactive: 0.547
3,B3,inactive: 0.856
4,B4,inactive: 0.835
5,B5,inactive: 2.52
6,B6,inactive: 2.61
7,B7,inactive: 0.675
8,B8,inactive: 0.816
9,B9,inactive: 0.566
10,B10,inactive: 0.979
11,B11,inactive: 0.993
12,B12,inactive: 0.761
13,B13,inactive: 0.866
14,B14,inactive: 0.434
15,B15,inactive: 0.767
16,B16,inactive: 3.15
17,B17,inactive: 1.14
18,B18,inactive: 0.494
